# Assay results taken from paper PMC4336329 (PLoS ONE, 2015).
# Hit rate of the full screen: of about 310,000 compounds, about 14,000 (4.5%) showed an effect of 50% or more. Effects have a minus sign here. The list shows a part of the results.
# Target: human ether-à-go-go-related gene (hERG) potassium channel (human, UniProt Q12809)
# Test: primary screen, population patch clamp on CHO cells stably expressing hERG
# 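Also: peak tail current of the secondary pulse compared with the same well before compound.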
# Sequence of human ether-à-go-go-related gene (hERG) potassium channel (Q12809 whole entry, looked up): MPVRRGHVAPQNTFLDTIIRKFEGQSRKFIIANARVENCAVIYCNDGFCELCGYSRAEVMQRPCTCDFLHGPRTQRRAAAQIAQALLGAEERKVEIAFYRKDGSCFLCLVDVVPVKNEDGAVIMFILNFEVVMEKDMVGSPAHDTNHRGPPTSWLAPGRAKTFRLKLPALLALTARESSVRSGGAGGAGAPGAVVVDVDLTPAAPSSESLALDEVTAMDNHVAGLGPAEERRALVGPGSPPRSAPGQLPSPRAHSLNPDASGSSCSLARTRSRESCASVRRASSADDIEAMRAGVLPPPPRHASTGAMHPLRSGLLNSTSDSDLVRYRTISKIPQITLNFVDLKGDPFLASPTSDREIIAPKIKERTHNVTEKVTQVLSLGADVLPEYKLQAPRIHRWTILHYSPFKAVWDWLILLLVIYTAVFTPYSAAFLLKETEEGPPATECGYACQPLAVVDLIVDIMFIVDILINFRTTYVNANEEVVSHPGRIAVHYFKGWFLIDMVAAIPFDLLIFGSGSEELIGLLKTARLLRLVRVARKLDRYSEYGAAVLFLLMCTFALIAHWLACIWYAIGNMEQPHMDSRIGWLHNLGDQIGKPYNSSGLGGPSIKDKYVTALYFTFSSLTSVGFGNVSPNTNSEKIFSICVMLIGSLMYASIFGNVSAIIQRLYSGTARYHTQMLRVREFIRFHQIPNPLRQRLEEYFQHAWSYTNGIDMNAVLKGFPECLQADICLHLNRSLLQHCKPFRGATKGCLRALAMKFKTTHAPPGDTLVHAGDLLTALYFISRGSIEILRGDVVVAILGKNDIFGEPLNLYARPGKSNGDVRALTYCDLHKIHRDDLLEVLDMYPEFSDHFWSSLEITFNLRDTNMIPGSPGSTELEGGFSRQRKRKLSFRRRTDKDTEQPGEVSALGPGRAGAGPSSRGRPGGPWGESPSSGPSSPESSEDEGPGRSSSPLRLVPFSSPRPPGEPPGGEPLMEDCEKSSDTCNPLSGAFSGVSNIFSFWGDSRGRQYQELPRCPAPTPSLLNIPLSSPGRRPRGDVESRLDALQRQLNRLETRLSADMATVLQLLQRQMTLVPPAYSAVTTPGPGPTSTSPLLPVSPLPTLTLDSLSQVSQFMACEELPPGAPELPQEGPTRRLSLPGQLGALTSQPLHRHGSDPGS
row,SMILES,"hERG current change (%, negative = inhibition) at 10uM [%]"
1,COc1cc(OC)nc(Oc2ccccc2C(=O)Oc2ccc(F)cc2Cl)n1,4.67
2,Cc1ccc(C(=O)Nc2cc(Cl)ccc2OC(=O)c2ccc(C)cc2)cc1,11.6
3,CCOC(=O)C1=C(Nc2ccccc2)OCC1=O,10.9
4,CCC(C(=O)OCC(=O)c1ccc2c(c1)NC(=O)CO2)c1ccccc1 (stereo not drawn),-17.5
5,Cc1cc(C)c(C(=O)C(C)OC(=O)Cn2cnc3c2c(=O)n(C)c(=O)n3C)cc1C (stereo not drawn),-17.6
6,CCN(CC)S(=O)(=O)c1ccc(C)c(NC(=O)COc2ccc(Br)cc2Cl)c1,-2.71
7,CC(C)Nc1nc2c(c(=O)n(C)c(=O)n2C)n1C,-13.9
8,Cc1cc(C)nc(N2Cc3ccccc3C2=N)n1,-56
9,CCOC(=O)c1c(C)[nH]c(=S)c(C#N)c1-c1ccc(Cl)cc1,20.7
10,Cn1ccnc1SCCC#N,-7.16
11,O=C1NC(=O)/C(=C\c2ccc(OCc3cccc(C(=O)O)c3)c(Cl)c2)N1,20.1
12,COc1cc(OC)cc(C(=O)N[C@H](C(=O)NCc2ccco2)C(C)C)c1,4.29
13,O=C(O)C1C2CCC(C2)C1C(=O)NCCCn1ccnc1 (stereo not drawn),-3.05
14,C=C(C)c1cccc(C(C)(C)NC(=O)NCc2ccc(OC)c(OC)c2)c1,5.84
15,Cc1cc(NC(=O)c2cc(-c3cccs3)on2)nn1Cc1ccc(Cl)cc1,-6.49
16,Cc1nc2sc(C(c3ccco3)N3CCC(Cc4ccccc4)CC3)c(O)n2n1 (stereo not drawn),-37.7
17,Cc1noc(NS(=O)(=O)c2ccc(NC(=O)c3cnc4scc(C)n4c3=O)cc2)c1C,7
18,COc1cc(CCC(=O)Nc2cccc(S(=O)(=O)N(C)C)c2)cc(OC)c1OC,-12.4
19,Cc1ccc(S(=O)(=O)N(C)CC(=O)Nc2ncccc2C)cc1,5.96
20,CCC(C)(C)n1nnnc1C(c1ccc2ncccc2c1)N1CCN2CCCC2C1 (stereo not drawn),-10.8
21,Cc1ccc(C(=O)C(C)N2C(=O)NC(C)(c3ccccc3)C2=O)cc1 (stereo not drawn),-4.13
22,O=C(O)c1cc2nc(-c3ccc(F)cc3)cc(C(F)(F)F)n2n1,4
23,CC(C)c1nnc(NC(=O)C2CC(=O)N(CCc3ccc(F)cc3)C2)s1 (stereo not drawn),-1.32

row,SMILES,"hERG current change (%, negative = inhibition) at 10uM [%]"
1,CC(=O)N1CCC(C(=O)Nc2ccc(S(=O)(=O)N3CCCCC3)cc2)CC1,-22.4
2,CCOc1ccc(NC(=O)NNC(=O)C2CCC(C(C)(C)C)CC2)cc1 (stereo not drawn),12.1
3,CCOc1ccc(NC(=O)N2CCN(Cc3ccc4c(c3)OCO4)CC2)cc1,-35.4
4,Cc1ccc(NC(=O)CCS(=O)(=O)c2ccccc2)cc1S(=O)(=O)N1CCOCC1,18.4
5,CC(NC(=O)C1CCC(CNS(=O)(=O)c2ccccc2)CC1)c1ccc2c(c1)OCCO2 (stereo not drawn),1.06
6,CCc1ccc(-n2c([O-])c(C(C)=O)c(=O)[nH]c2=O)cc1.C[NH+](C)C,-9.78
7,C/C(=C\C(=O)c1ccc(Br)cc1)NNC(=O)c1ccc(O)cc1,5.39
8,COC(=O)C1=C(C)N(c2ccc(OC)cc2)C(=O)/C1=C\c1cccs1,-3.08
9,COc1ccc(C(=O)N(C)C(C)c2ccon2)cc1OC1CCN(C(C)C)CC1 (stereo not drawn),7.06
10,COCCCN1C(=O)c2ccc(C(=O)OCC(=O)N3CCN(c4ccccc4)CC3)cc2C1=O,-38.2
11,O=C(Cc1cccs1)Nc1ccon1,18.7
12,O=C(CSc1nnc(CNC(=O)C23CC4CC(CC(C4)C2)C3)n1-c1ccccc1)Nc1ccc(F)cc1,3.47
13,COc1ccc(S(=O)(=O)NC2CCN(Cc3ccccc3)CC2)cc1NC(C)=O,-24.6
14,S=C(Nc1ccc(Br)cc1Cl)N1CCC2(CC1)OCCO2,8.18
15,Cc1cccc(CN2CCc3c([nH]c4ccccc34)C2C(C)(C)C)n1 (stereo not drawn),3.57
16,CS(=O)(=O)N(CCC#N)Cc1ccco1,23.2
17,CC(=O)NCCn1c(C)cc2ccccc21,-55.1
18,NC(=O)c1ccccc1NC(=O)c1cccc(C(=O)Nc2ccccc2C(N)=O)n1,10.5
19,CCCC(=O)Nn1cnc2c(c1=O)C1(CCCC1)Cc1ccccc1-2,-2.16
20,CNC(=S)NNC(=O)CSCc1c(Cl)cccc1Cl,16.7
21,Fc1cccc(Cn2cc(C(=S)N3CCOCC3)c3ccccc32)c1,-2.28
22,COc1ccc(C(=O)NCC(=O)N2CCc3ccccc3C2)cc1,-2.27
